# According to PubChem BioAssay AID504832 (National Center for Advancing Translational Sciences (NCATS), 2011):
# Screen size: about 310,000 compounds; about 18,000 (5.8%) were called active. This list was built around the results that the source calls inconclusive (neither active nor inactive); the mix of calls is not that of the screen. Calls come from the whole dose curve; as a rule, active = well fitted inhibition curve with a large enough effect; inconclusive = small, poorly fitted or top-dose-only effect, or another doubt; inactive = no such curve, though single readings can be large or run the other way. Potencies of inconclusive entries are left out as doubtful fits.
# Test: Primary qHTS for delayed death inhibitors of the malarial parasite plastid, 48 hour incubation
# Settings: P. falciparum luciferase growth in erythrocytes; series mostly up to 28.7 µM
# Outline: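 Firefly luciferase activity from engineered P. falciparum reports growth; inhibitors lower the luminescent signal. Cultures contained 2% hematocrit erythrocytes at 0.1% final parasitemia.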
# Potency is the fitted concentration of half-maximal effect; tags give direction and shape of the fitted curve.
row,Compound,Potency
1,Cc1cc(Cl)c2cc3ccccc3cc2n1,inactive
2,CCc1nc2ccccc2n1CC(O)COCC1CC=CCC1 (stereo not given),inactive
3,COc1ccccc1/C=C/C(=O)Nc1cccc(S(=O)(=O)NC2=NCCCCC2)c1,"inconclusive [inhibitor, partial curve, poor fit]"
4,Cc1ccc(S(=O)(=O)N2CCOCC2)cc1NC(=O)COc1ccc(C(=O)c2ccccc2)cc1,"inconclusive [inhibitor, single point]"
5,COCCCn1c(N)c(C(=O)Nc2ccccc2)c2nc3ccccc3nc21,"inconclusive [inhibitor, single point]"
6,COc1cc(C(Nc2ccccn2)c2ccc3ccc(C)nc3c2O)cc(OC)c1O (stereo not given),"inconclusive [inhibitor, partial curve]"
7,COCCn1c(=NC(=O)c2ccc(S(=O)(=O)N3CCOCC3)cc2)sc2cc(S(N)(=O)=O)ccc21,"inconclusive [inhibitor, single point]"
8,CC(=O)[C@@]1(O)CC[C@H]2[C@@H]3C[C@H](C)C4=CC(=O)CC[C@]4(C)[C@H]3CC[C@@]21C,"inconclusive [inhibitor, single point]"
9,O=c1cnnc(N/N=C/c2c[nH]c3ccccc23)[nH]1,inactive
10,CCc1ccc(OCC(=O)NNC(=O)Cc2ccc(S(=O)(=O)N3CCOCC3)s2)cc1,"inconclusive [inhibitor, single point]"
11,Cc1ccc(C(=O)c2cn[nH]c2-c2cc(Cl)ccc2O)cc1,inactive
12,CC(C)CNC(=O)c1ccccc1NC(=O)c1ccc(CSc2ccccc2)cc1,active: 13.1 µM
13,CCC(NC(=O)c1ccncc1)c1ccccc1 (stereo not given),inactive
14,NNc1ncnc2scc(-c3ccc(Cl)cc3)c12,"inconclusive [inhibitor, single point]"
15,O=C(/C=C/c1cccc(O)c1)c1cccnc1,inactive
16,COc1ccc(-c2nn(-c3ccccc3)cc2C(=O)N/N=C/c2ccc([N+](=O)[O-])o2)cc1,active: 2.62 µM
17,O=C(CN1C(=O)c2ccccc2S1(=O)=O)NC1CCCCC1,inactive
18,O=c1oc2ccccc2nc1/C=C(\O)c1ccccc1,inactive
19,Cc1cc(NC(=O)CSc2nc(-c3cccnc3)ccc2C#N)no1,"inconclusive [inhibitor, partial curve, poor fit]"
20,C[C@]12CCC3[C@@H](CC[C@@H]4C[C@H](O)CC[C@]34C)[C@@H]1CCC2=O (stereo not given in full),inactive
21,O=c1sc2ccccc2n1COc1ccccc1,inactive
22,CCOC(=O)C1CCN(C(=O)CN(Cc2ccccc2)S(C)(=O)=O)CC1,inactive
23,COc1ccc(C2NS(=O)(=O)N=C2N)cc1 (stereo not given),inactive
24,COC(=O)C1=C(C)N(Cc2cccnc2)C(=O)/C1=C\c1cccs1,"inconclusive [inhibitor, partial curve, poor fit]"
25,CCCCCc1ccc(OCCCC[n+]2ccccc2)c(CCCCC)c1,active: 0.928 µM

row,Compound,Potency
1,Cc1ccc(NC(=O)C2=NNC(=O)CC2)cc1F,inactive
2,COc1cc(OC)c(C(=O)OCC(=O)N2CCOCC2)cc1OC,inactive
3,C=CCNC(=O)C1CC1(c1ccc(C)cc1)c1ccc(C)cc1 (stereo not given),"inconclusive [inhibitor, partial curve]"
4,Cc1ccc2cc(CCNC(=O)Cc3cccs3)c(=O)[nH]c2c1,inactive
5,COCCN(C(=O)C1CC(=O)N(Cc2ccccc2)C1)c1nc(-c2ccc([N+](=O)[O-])cc2)cs1 (stereo not given),active: 13.1 µM
6,CN1CCN(NC(=O)c2cc(-c3cccc(Cl)c3)nc3ccccc23)CC1,"inconclusive [inhibitor, partial curve]"
7,CCC(C)Oc1ccc(C(=O)Nc2ccc(CN3CCOCC3)cc2)cc1 (stereo not given),"inconclusive [inhibitor, single point]"
8,COc1cccc(/C=C2\Oc3cc(OCC(=O)N4CCCCC4)ccc3C2=O)c1OC,"inconclusive [inhibitor, partial curve]"
9,CC(Sc1ccc(S(=O)(=O)N2CCN(C)CC2)cn1)C(=O)NC1CCCCC1 (stereo not given),inactive
10,CCSc1nnc(-c2ccc(S(=O)(=O)N3CCCC3)cc2)n1C,"inconclusive [inhibitor, single point]"
11,CN(C(=O)c1cccs1)c1ccc(OCC(=O)Nc2ccc(C(=O)O)cc2)cc1,inactive
12,Cc1cc(O)c(C(=O)/C=C/c2ccccc2O)c(=O)o1,inactive
13,CCOc1ccc(-c2c(C(=O)N/N=C/c3cccc(Br)c3)nnn2-c2nonc2N)cc1,"inconclusive [inhibitor, full curve]"
14,O=C(CCSc1ccccc1)Nc1ccccc1Br,"inconclusive [inhibitor, partial curve, poor fit]"
15,CC(=O)NCc1cc(Cl)c2cccnc2c1O,"inconclusive [inhibitor, single point]"
16,CC(=O)N1CCc2c(sc(NC(=O)CCS(=O)(=O)c3ccccc3)c2C(N)=O)C1,"inconclusive [inhibitor, single point]"
17,NC(=O)Nc1ccc(C(=O)OCC(=O)NCc2ccc3c(c2)OCO3)cc1,"inconclusive [inhibitor, single point]"
18,Cc1ccc(CN2CCN(C3CCCC3)C(CCO)C2)s1 (stereo not given),inactive
19,CN1CCc2c1nc1ccccc1c2N=C1CCCN1Cc1ccccc1,"inconclusive [inhibitor, single point]"
20,CSc1nnc(-c2cc3c(s2)-c2ccccc2CC3)o1,inactive
21,COc1ccc(CCCNC(=O)C2CCC(=O)N(Cc3ccc(Cl)cc3)C2)cc1 (stereo not given),"inconclusive [inhibitor, single point]"
22,CCOc1ccc(Cc2nnc(SCC(=O)Nc3ccccc3)n(N)c2=O)cc1,"inconclusive [inhibitor, single point]"
23,COc1ccccc1NC(=O)c1ccc(NC(=O)c2ccc(=O)[nH]c2)cc1,"inconclusive [inhibitor, single point]"
24,COc1ccc(NC(=S)N2CCN(S(=O)(=O)c3ccc(C)cc3)CC2)cc1,"inconclusive [inhibitor, single point]"
25,C=C(C)C(=O)N1CC2(CC(c3cccc(NC(=O)CC(c4ccccc4)c4ccccc4)c3)=NO2)C[C@H]1C(N)=O (stereo not given in full),"inconclusive [inhibitor, partial curve]"

row,Compound,Potency
1,O=C(NCCCN1CCOCC1)C(=O)N/N=C/c1c(Cl)cccc1Cl,inactive
2,Cc1ccc(S(=O)(=O)c2nc(S(C)(=O)=O)sc2N2CCOCC2)cc1,"inconclusive [inhibitor, partial curve]"
3,COc1ccc(N/N=C(/C)c2cnnc(-c3ccccc3)n2)cc1,"inconclusive [inhibitor, full curve]"
4,CCOc1ccc(-n2nc(C(=O)N3CCN(CC)CC3)c3ccccc3c2=O)cc1,active: 4.15 µM
5,Clc1ccc(OCCCc2nc(-c3cccnc3)no2)c(Cl)c1,inactive
6,Cc1ccc(S(=O)(=O)N(C)c2c(C)ccc(S(N)(=O)=O)c2C)cc1,inactive
7,CCOc1ccc(C(=O)CSc2nnc(C3CC3)n2C)cc1,inactive
8,Cc1ccc(N(C)S(=O)(=O)c2ccc3c(c2)NC(=O)C(C)S3)cc1 (stereo not given),active: 3.29 µM
9,O=C(CCn1c(=O)c2sccc2n(CC(=O)OCc2ccccc2)c1=O)NCc1ccccc1,inactive
10,COc1ccc(OC)c(N(CC(=O)N2CCCC2)S(=O)(=O)c2ccc(OC)c(OC)c2)c1,"inconclusive [inhibitor, single point]"
11,COC(=O)C1=C(c2cccc(OCc3ccccc3)c2)C[C@@H]2CC[C@H]1N2C(=O)NCCCc1ccccc1,active: 9.28 µM
12,COc1ccccc1-n1ccnc(SCC(=O)NCc2ccccc2)c1=O,inactive
13,C/C(CC(=O)Nc1ccc(Cl)c(C(F)(F)F)c1)=N\NC(=O)c1cccc(O)c1,active: 11.7 µM
14,CCOc1ccc(S(=O)(=O)N2CCCCC2)cc1NC(=O)C1CSC2(C)CCC(=O)N12 (stereo not given),active: 1.04 µM
15,COc1cccc(Cn2cnc3c(NS(=O)(=O)c4cccc(Cl)c4Cl)c(C)c(C)cc32)c1,"inconclusive [inhibitor, single point]"
16,COc1cc2c(cc1OC)CN(C(=O)c1ccc(Br)o1)CC2,"inconclusive [inhibitor, partial curve, poor fit]"
17,COc1cccc(Nc2nnc(SCC(=O)N3CCOCC3)s2)c1,"inconclusive [inhibitor, single point]"
18,Cc1cccc(C)c1NC1=NCCCCC1,inactive
19,COC(=O)c1c(NC(=O)/C=C/C(=O)O)sc(Cc2ccccc2)c1C,inactive
20,CC(C)Sc1nc(N2CCOCC2)c2c(c1C#N)CC(C)(C)SC2,"inconclusive [inhibitor, single point]"
21,CC(=O)Nc1c(-c2cc(=O)oc3cc(C)ccc23)oc2ccccc12,"inconclusive [inhibitor, partial curve, poor fit]"
22,Cc1cc(C)c(C)c(S(=O)(=O)N2CCN(CC(=O)NC(=O)NCc3ccccc3)CC2)c1C,"inconclusive [inhibitor, single point]"
23,O=C1/C(=C/c2cccc([N+](=O)[O-])c2)CSc2ccc(Cl)cc21,inactive
24,O=C(COC(=O)Cc1n[nH]c(=O)c2ccccc12)Nc1ccc(Cl)cn1,inactive
25,Cn1c(-[n+]2c(-c3ccccc3)cc(-c3ccccc3)cc2-c2ccccc2)nc2cc([N+](=O)[O-])ccc21,active: 13.1 µM
